The name of at least one read-out is uncertain.
Test system: GLP-1
Assay: In vivo mouse GLP-1 study (C57BL/6NTac mice, sitagliptin pre-dosed)
Settings: active GLP-1, fold change over vehicle (sitagliptin only), 10 mg/kg oral, 4 h post-dose

Row | SMILES | GLP-1 Fold Increase
1 | O=C(CCCC1CCN(c2cc(N3CCC[C@H]3C(=O)NCCc3ccc(C(F)(F)F)cc3)nc(C(F)(F)F)n2)CC1)NCCNc1ncnc2c1ncn2[C@@H]1O[C@H](CO)C(O)C1O (stereo partly drawn) [Compound 96, (2S)-1-(6-(4-(4-((2-((9-((2R,5R)-3,4-dihydroxy-5-(hydroxymethyl)-tetrahydrofuran-2-yl)-9H-purin-6-yl)amino)ethyl)amino)-4-oxobutyl)piperidin-1-yl)-2-(trifluoromethyl)-pyrimidin-4-yl)-N-(4-(trifluoromethyl)-phenethyl)-pyrrolidine-2-carboxamide] | 1.1
2 | N#Cc1ccc(CCNC(=O)[C@@H]2CCCN2c2cc(N3CCC(CCCC(=O)N[C@@H](CCCNC(=N)N)C(=O)O)CC3)nc(C(F)(F)F)n2)cc1 [Compound 72, (S)-2-(4-(1-(6-((S)-2-((4-cyanophenethyl)carbamoyl)pyrrolidin-1-yl)-2-(trifluoromethyl)pyrimidin-4-yl)piperidin-4-yl)butanamido)-5-guanidinopentanoic acid] | 1.3
3 | N#Cc1ccc(CCNC(=O)[C@@H]2CCN2c2cc(N3CCC(CCNC(=O)NCCC(=O)O)CC3)nc(C(F)(F)F)n2)cc1 [Compound 268, (S)-3-(3-(2-(1-(6-(2-((4-cyanophenethyl)carbamoyl)azetidin-1-yl)-2-(trifluoromethyl)pyrimidin-4-yl)piperidin-4-yl)ethyl)ureido)propanoic acid] | 2.9
4 | O=C(CCCC1CCN(c2cc(N3CCC[C@H]3C(=O)NCCc3ccc(C(F)(F)F)cc3)nc(C(F)(F)F)n2)CC1)NCCCS(=O)(=O)O [Compound 60, (S)-3-(4-(1-(2-(trifluoromethyl)-6-(2-((4-(trifluoromethyl)phenethyl)carbamoyl)pyrrolidin-1-yl)pyrimidin-4-yl)piperidin-4-yl)butanamido)propane-1-sulfonic acid] | 2.3
5 | O=C(O)CNS(=O)(=O)CCNC(=O)CCCC1CCN(c2cc(N3CCC[C@H]3C(=O)NCCc3ccc(C(F)(F)F)cc3)nc(C(F)(F)F)n2)CC1 [Compound 114, (S)-2-(2-(4-(1-(2-(trifluoromethyl)-6-(2-((4-(trifluoromethyl)phenethyl)-carbamoyl)-pyrrolidin-1-yl)pyrimidin-4-yl)piperidin-4-yl)butanamido)ethyl-sulfonamido)acetic acid] | 3.1
